According to PubChem BioAssay AID757 (NMMLSC, 2007):
About 520 (0.27%) of roughly 190,000 compounds were called active. This list was built around the results that the source calls inconclusive (neither active nor inactive); the mix of calls is not that of the screen.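 The calls were made as follows: active = GTP binding activity at least 20 points away from the 100% control level, either lower or higher; inconclusive = compound flagged as likely green fluorescent, judged across all proteins; inactive = the rest.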

target: Ras-related C3 botulinum toxin substrate 1 (Homo sapiens) (UniProt P63000); assay: wildtype Rac1 GTP binding modulators, primary screen, biochemical, GST-Rac1 beads, flow cytometry, multiplex (AID 757); details: fluorescent GTP binding, at 10 µM, actives lie on both sides, 0 = cold GTP competed, 100 = untreated

| Structure (SMILES) | GTP binding activity (% of control) |
| --- | --- |
| CCc1nnc(NC(=O)Cc2ccc(Br)cc2)s1 | inconclusive: 99% |
| COc1ccc(NC(=O)c2ccc(Cl)nc2)cc1S(=O)(=O)N1CCCCC1 | inconclusive: 90% |
| CCCn1nc(C(=O)Nc2cccc(C(=O)OC)c2)c2ccccc2c1=O | inconclusive: 92% |
| O=C(Nc1ccc2[nH]c(=O)[nH]c2c1)c1c(F)c(F)c(F)c(F)c1F | inactive: 94% |
| O=C(c1ccc(S(=O)(=O)NCc2ccco2)cc1)N1CCN(Cc2ccccc2)CC1 | inconclusive: 98% |
| COc1ccccc1N1CCN(c2ccc([N+](=O)[O-])cc2Cl)CC1 | inactive: 110% |
| Fc1cccc(F)c1-n1c(CN2CCOCC2)csc1=S | inconclusive: 96% |
| CC(Sc1nnc(NC2CCCCC2)s1)C(=O)Nc1ccc2c(c1)C(=O)c1ccccc1C2=O (centres undefined) | active: 75% |
| Cc1ccc(-c2nc3cccnc3s2)cc1NC(=O)C1c2ccccc2Oc2ccccc21 | inactive: 100% |
| NNC(=O)c1ccc(Cn2cc(Br)cn2)cc1 | inconclusive: 109% |
| Cc1cc(Cl)ccc1OCCCC(=O)OCC(N)=O | inactive: 103% |
| COc1ccc(-c2cc(C(F)(F)F)nc(-n3ccnc3)n2)cc1 | inactive: 94% |
| O=C(N/N=C/c1ccccn1)c1cccs1 | inactive: 98% |
| COc1ccc(C)cc1-n1nnnc1SCc1nc2ccccc2c(=O)[nH]1 | inactive: 98% |
| Cc1nc(SCC(=O)O)c(C#N)c(C)c1CC(=O)c1ccccc1 | inactive: 92% |
| COCCCNC(=S)N1CCN(c2ccccc2)CC1 | inactive: 97% |
| CCOC(=O)c1c(NC(=O)c2cc(-c3ccc(O)cc3)on2)sc(C(C)=O)c1C | inactive: 101% |
| COC(=O)c1cc(NC(=O)c2cccs2)ccc1N1CCOCC1 | inconclusive: 94% |
| N#Cc1ccc(-c2ccc(OCC(=O)NCC(=O)Nc3ccc(F)c(F)c3F)cc2)cc1 | inconclusive: 106% |
| Cc1nnc(SCc2cc(=O)[nH]c(N3CCN(Cc4ccccc4)CC3)n2)s1 | inconclusive: 105% |
| CCCCCN1CC(O)=C(c2nc(-c3ccc(Cl)cc3)cs2)C1=N | active: 135% [activator] |
| Cc1ccc2c(c1)c(-c1ccccc1)nc1nncn12 | inconclusive: 95% |
| C=CCn1c(SCC(=O)N2CC(=O)Nc3ccccc32)nc2scc(-c3ccccc3)c2c1=O | inconclusive: 102% |
| CCOc1ccc2c(c1)c(N=NC(=N)N)c(O)n2C | active: 78% |

| Structure (SMILES) | GTP binding activity (% of control) |
| --- | --- |
| CC(C)(C)c1ccc2c(c1)C(=O)c1ccccc1C2=O | inconclusive: 101% |
| CCOc1ccc(/C=C2\SC(N3CCc4ccccc4C3)=NC2=O)cc1 | inconclusive: 82% |
| COCCNc1nnnc2c1sc1nc(N3CCOCC3)c3c(c12)CCCC3 | active: 73% |
| COc1ccc(OCC(=O)N2CCN(S(=O)(=O)c3ccccc3[N+](=O)[O-])CC2)cc1 | inactive: 94% |
| CCn1c(SCc2ccc(C(=O)Nc3nccs3)cc2)nnc1-c1ccc(N)cc1 | inconclusive: 94% |
| COc1ccc(C(=O)N2CCCCC2)cc1S(=O)(=O)Nc1ccccc1 | inconclusive: 98% |
| CCCc1nc2oc3c(=O)[nH]cnc3c2c2c1CCCC2 | active: 79% |
| COCCn1nnnc1CN(Cc1ccco1)Cc1cc2cc3c(cc2[nH]c1=O)OCO3 | inconclusive: 104% |
| CCOC(=O)C1=NN(c2ccc(C)cc2)CC1C(=O)OC (centres undefined) | active: 123% [activator] |
| CCn1cc(C(=O)Nc2cc(C)ccc2C)c(=O)c2ccc(C)nc21 | inactive: 100% |
| COc1ccccc1CNC(=O)C(=O)NCC(c1ccco1)N1CCOCC1 (centres undefined) | inconclusive: 109% |
| CCn1c(SC2CCOC2=O)nnc1-c1ccc(Cl)cc1 (centres undefined) | inactive: 100% |
| CCC(C(=O)Nc1ccccc1C(=O)N1CCOCC1)N1C(=O)c2ccccc2C1=O (centres undefined) | inconclusive: 94% |
| CN(C)c1ccc(-c2nn3c(-c4ccc(Cl)cc4Cl)nnc3s2)cc1 | inconclusive: 108% |
| COc1ccc(/C=N/NC(=O)c2cccc(O)c2)cc1Cn1nc(C)c([N+](=O)[O-])c1C | inconclusive: 89% |
| O=C(c1ccc(S(=O)(=O)c2ccccc2Cl)c([N+](=O)[O-])c1)N1CCCCCC1 | inactive: 105% |
| Cc1ccc(-n2[nH]c(C)c(C=Nc3ccc(S(=O)(=O)Nc4nccs4)cc3)c2=O)cc1C | inconclusive: 89% |
| COCc1nnc(NC(=O)CSc2ccc(C)cc2)s1 | inconclusive: 109% |
| N/C(CSc1nc(-c2ccccc2)c(-c2ccccc2)o1)=N\O | inconclusive: 87% |
| OCC1(Cc2ccc(Cl)cc2)CCN(CCCc2ccccc2)CC1 | inconclusive: 100% |
| Cc1cc(C)c(C(CC(=O)c2cccs2)C(C#N)C#N)c(C)c1 (centres undefined) | inactive: 107% |
| O=C(Nc1cnn(Cc2c(Cl)cccc2Cl)c1)c1ccc([N+](=O)[O-])cc1 | inconclusive: 92% |
| Cc1cc2[nH]c3c(c[n+](C)c4ccccc34)c2cc1C | active: 76% |
| COc1ccc(N=c2oc3c(OC)cccc3cc2C(=O)NCc2ccco2)cc1OC | inconclusive: 96% |

| Structure (SMILES) | GTP binding activity (% of control) |
| --- | --- |
| CCCCn1cnc2c(sc3nc4c(cc32)CSC(C)(C)C4)c1=O | inconclusive: 103% |
| N#Cc1cc(C#N)c(N2CCN(c3cccc(Cl)n3)CC2)nc1N | inconclusive: 84% |
| CCCOC(=O)c1ccc(NC(=O)Oc2ccccc2)cc1 | inconclusive: 93% |
| O=C1C(Cl)=C(N2CCN(Cc3ccccc3)CC2)C(=O)N1Cc1ccccc1 | inconclusive: 95% |
| COc1ccc(C(=O)N2CC3(CC(c4ccc(Cl)cc4)=NO3)C[C@H]2C(=O)NCC(N)=O)cc1 (some centres undefined) | inactive: 98% |
| COc1ccc(N(CC(=O)Nc2cccc(C)c2C)S(=O)(=O)c2c(C)n[nH]c2C)cc1 | inactive: 81% |
| Cc1cc(C)nc(/N=C(\N)Nc2ccc(F)c([N+](=O)[O-])c2)n1 | inactive: 105% |
| Cc1ccccc1OCCn1cc(C(=O)O)c2ccccc21 | active: 151% [activator] |
| CCOc1ccc(-n2c(=O)c3sccc3n(Cc3cccc([N+](=O)[O-])c3)c2=O)cc1 | inactive: 99% |
| COc1ccc(N/N=C(\C#N)C(=N)N2CCOCC2)cc1 | inconclusive: 96% |
| Cc1ccc(NC(=O)c2noc(C(C)C)c2[N+](=O)[O-])cc1 | inactive: 98% |
| CC1=CC(=C(C#N)C#N)c2ccccc2N1C | inconclusive: 93% |
| O=C(c1c[nH]c2ccccc12)N1CCOCC1 | inconclusive: 90% |
| COc1ccc(N2CCN(C(=O)Cn3cncn3)CC2)cc1 | inconclusive: 95% |
| O=C(CSc1nnc(Cc2ccccc2)o1)c1ccccc1 | inconclusive: 98% |
| CCOc1ccc(NC(=S)N(CCN2CCOCC2)Cc2cc3cc4c(cc3[nH]c2=O)OCO4)cc1 | inconclusive: 94% |
| CC/C(=N\Nc1ccccc1[N+](=O)[O-])c1ccc(O)cc1 | inconclusive: 93% |
| COc1ccc(CCNC(=O)c2ccc(CSc3ccccc3)o2)cc1 | inconclusive: 90% |
| COc1ccc2nc3ccccc3nc2c1NC(=O)c1ccc(Cl)cc1Cl | inactive: 104% |
| N#Cc1c(N)nc2c(c1-c1ccncc1)CCCC2 | inconclusive: 108% |
| COc1cccc(/C=N/Nc2nn3cnnc3c3ccccc23)c1O | active: 70% |
| COc1ccc(OC)c(NC(=S)N2CCN(c3ccccn3)CC2)c1 | inconclusive: 85% |
| O=C(Nc1ccc(N2CCN(C(=O)c3cccs3)CC2)cc1)c1cccnc1Cl | inconclusive: 98% |
| Cc1ccc(C(=O)COc2nc(C)nc3ccccc23)cc1 | inactive: 95% |

| Structure (SMILES) | GTP binding activity (% of control) |
| --- | --- |
| O=c1ccn(Cc2ccccc2Cl)cc1 | inconclusive: 104% |
| Cn1c(NNC(=O)C2CCCCC2)cc(=O)n(C)c1=O | inactive: 98% |
| COc1ccc(-c2csc(Nc3ccc(S(N)(=O)=O)cc3)n2)cc1OC | inconclusive: 95% |
| Clc1cc(Cl)cc(C2=NCCC(c3ccccc3)O2)c1 (centres undefined) | inactive: 100% |
| O=C1c2ccccc2C(=O)c2c1cccc2N1CCCC1 | inconclusive: 94% |
| CCOC(=O)N1CCN(C(=O)c2cccc(NC(=O)c3ccco3)c2)CC1 | inconclusive: 96% |
| COC(=O)C(NS(=O)(=O)c1ccc(NC(C)=O)cc1)C(C)C (centres undefined) | inconclusive: 96% |
| C=CCOC(=O)CCCC(=O)NC1CCCCC1 | inconclusive: 108% |
| COc1ccc(S(N)(=O)=O)cc1C(=O)NCC1(N2CCCCC2)CCCCC1 | inactive: 102% |
| CCCCNC(=S)N(Cc1ccco1)Cc1cc2cc3c(cc2[nH]c1=O)OCCO3 | inconclusive: 103% |
| COc1ccc(-c2cnc[nH]2)cc1 | inactive: 99% |
| S=C(c1ccc(-c2ccccc2)o1)N1CCCCC1 | inconclusive: 87% |
| Cn1c(=O)c2c(ncn2CC(=O)N/N=C/c2cn[nH]c2-c2ccc(F)cc2)n(C)c1=O | inconclusive: 96% |
| CCCCCCCCCCS(=O)(=O)N/N=C/c1ccc(O)cc1 | inconclusive: 87% |
| COc1ccc(NC(=O)COC(=O)CNC(=O)C2CCCCC2)cc1 | inconclusive: 97% |
| Cc1c(/C=N/NC(=O)CNc2ccccc2)c2ccccn2c1C(=O)c1ccncc1 | inconclusive: 89% |
| Cc1c(C(=O)NCCN2CCOCC2)oc2ccc(S(=O)(=O)N3CCCCCC3)cc12 | inconclusive: 106% |
| COc1cccc(NC(=O)c2ccc(S(=O)(=O)N(C)C)cc2)c1 | inactive: 104% |
| OC(COc1c(Cl)cc(Cl)cc1Cl)CN1CCCCC1 (centres undefined) | inconclusive: 103% |
| COc1cc(NC(=O)c2ccc(Br)o2)c(C(=O)O)cc1OC | inconclusive: 88% |
| CC12CS(=O)(=O)CC1SC(=S)N2Cc1ccccc1 (centres undefined) | inactive: 102% |
| CCOC(=O)Cc1csc(NC(=O)CSc2nc(-c3ccccc3)c(C#N)c(=O)[nH]2)n1 | inactive: 88% |
